The results in this text go back to publication PMC7819943, “Rice protein-binding microarrays: a tool to detect cis-acting elements near promoter regions in rice”.

Some of the results follow.

The target in the assay is T1, OsWOX13 (Oryza sativa, UniProt Q5QMM3 1-267).
T1 sequence: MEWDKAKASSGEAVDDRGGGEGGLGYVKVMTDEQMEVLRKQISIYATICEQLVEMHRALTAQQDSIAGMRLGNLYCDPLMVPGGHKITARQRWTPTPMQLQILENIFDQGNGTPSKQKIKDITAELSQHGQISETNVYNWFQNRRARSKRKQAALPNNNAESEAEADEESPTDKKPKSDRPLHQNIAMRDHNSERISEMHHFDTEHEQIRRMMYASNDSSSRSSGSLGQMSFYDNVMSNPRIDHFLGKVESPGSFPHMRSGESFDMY
Nature of the assay: protein-binding microarray (RPBM); PBS, 2% BSA, 51.3 ng/ul salmon testes DNA, 50 uM zinc acetate, 200 nM TF, 25 C, 1 h; high values mean tight binding. The following applies: protein: recombinant; tags: N-terminal polyhistidine and DsRed monomer fusion (pET32a); label: CyDye5-dUTP incorporated in the synthesized complementary strand; 3' TTTTT single-stranded linker to array surface; dsDNA, one strand shown. A digest of the protocol:
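A custom Agilent array was converted to double-stranded form by primer extension with Cy5-dUTP and blocked with 2% BSA. Protein at 200 nM in PBS with 2% BSA, salmon testes DNA and 50 µM zinc acetate was applied for 1 h at 25 °C, followed by washing. The proteins were polyhistidine–DsRed N-terminal fusions of transcription factors, expressed in E. coli BL21-CodonPlus and Ni–NTA-purified. The binding signal is per-feature fluorescence intensity (arbitrary units) from an Axon 4000B scanner.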
For “ACTTATGAATAAGCCAATTAGCCAACATTAATAGGAGGTCCGGAGTCACCTAGTGCAG”, the binding signal is 9220 fluorescence intensity (a.u.).

“TGAGATTAGGTATGATAGGATAATTCCAAAAGAGAATATACGGAGTCACCTAGTGCAG”: the binding signal was 6500 fluorescence intensity (a.u.).

As for “GGTAAATGATTTACCGTTGGATCGACCGATCCCGTTCTCTCGGAGTCACCTAGTGCAG”, the binding signal was 41300 fluorescence intensity (a.u.).

Take “AATTTTGTTAATTCGGTTAACCGATCCTAATAACCAAAATCGGAGTCACCTAGTGCAG”: the binding signal is 4780 fluorescence intensity (a.u.).

Take “TAGAGATTAGACACGTGGACGGTGATGAGGCGATCGAGCACGGAGTCACCTAGTGCAG”: the binding signal was 4510 fluorescence intensity (a.u.).

Regarding “TATAATTTAAATTTAACTAAATTAATGGTATTACAGATGTCGGAGTCACCTAGTGCAG”, the binding signal is 58500 fluorescence intensity (a.u.).

In the case of “ATTGGTGACTAGTTATAATTAAATTTAGGTCATCGGTTATCGGAGTCACCTAGTGCAG”, the binding signal is 11500 fluorescence intensity (a.u.).

For “CTCTATAACAAGCTATAATTGGCCTCGAAACTAAACCTTGCGGAGTCACCTAGTGCAG”, the binding signal was 11800 fluorescence intensity (a.u.).

Turning to “TGCAGTCCTCTAATGATTAATATTTCACCACAGGTTGTTCCGGAGTCACCTAGTGCAG”, the binding signal was 3690 fluorescence intensity (a.u.).

“GGATTATCATATAATAGATTAGCAAACTAATACCAAATCCCGGAGTCACCTAGTGCAG”: the binding signal is 11900 fluorescence intensity (a.u.).

As to “ACCAACTGTTGATTTCCTTTGCAATGTCTTGTGATACCACCGGAGTCACCTAGTGCAG”, the binding signal is 4450 fluorescence intensity (a.u.).

Regarding “AAAATAATTGATTGCAGCAGTAGTGGTTATTTTGGCAAGACGGAGTCACCTAGTGCAG”, the binding signal is 50100 fluorescence intensity (a.u.).

“TTGATTGTGAATTTATAATGTTTGGATATAATGATTACTTCGGAGTCACCTAGTGCAG”: the binding signal is 34500 fluorescence intensity (a.u.).

In the case of “ATTGTCCGGACCAATCATTAATCATATCCCAAAGCATGGTCGGAGTCACCTAGTGCAG”, the binding signal was 5040 fluorescence intensity (a.u.).

Take “AGCCCATCAATTTAGATAAGGTAATATTGGAGATTATATGCGGAGTCACCTAGTGCAG”: the binding signal was 11400 fluorescence intensity (a.u.).

Consider “GCCCAATTAAAACCCAATAGAAAGCCCACCTCCATCTCCACGGAGTCACCTAGTGCAG”, for which the binding signal is 3610 fluorescence intensity (a.u.).

“GCTAAATTGGATAATTCATCATAGATTTTGCATGAATGATCGGAGTCACCTAGTGCAG”: the binding signal is 21200 fluorescence intensity (a.u.).

As for “GAAGTGGGTGAGGAGGGGTGATTGCTCGGGGACGCGTTGCCGGAGTCACCTAGTGCAG”, the binding signal was 5090 fluorescence intensity (a.u.).

Consider “TCTATAATCACTCTGTACTCTATATTATCTTGATTTTCTGCGGAGTCACCTAGTGCAG”, for which the binding signal is 3150 fluorescence intensity (a.u.).

Regarding “TTAATTGCCACATTAAAAGTGGCATATAGTTCAAAATCTCCGGAGTCACCTAGTGCAG”, the binding signal is 4260 fluorescence intensity (a.u.).

“AACTTATTCCGATTAATTAAGCGACGGCTTCCTCCTCAACCGGAGTCACCTAGTGCAG”: the binding signal was 7590 fluorescence intensity (a.u.).

Regarding “GTGATTGAATTTGTCCAGATTCATTGTTCTAGGAAATATCCGGAGTCACCTAGTGCAG”, the binding signal was 36100 fluorescence intensity (a.u.).

Take “TTCCTGTAATTTCCTGCTTCTTTTCGCTGCATGCTGCTTGCGGAGTCACCTAGTGCAG”: the binding signal was 4070 fluorescence intensity (a.u.).

“TACCTCGCGACTAATTGGGCCTCCACTAACACCTAGATTCCGGAGTCACCTAGTGCAG”: the binding signal is 4340 fluorescence intensity (a.u.).

On to “CAAATCAATTTCCCTGTCCTAACGCCCAAATGTAATAGTACGGAGTCACCTAGTGCAG”, for which the binding signal is 7130 fluorescence intensity (a.u.).

As to “TGGGGTATCTAGTCAATCATACAATATTTTGTTTTGCTAACGGAGTCACCTAGTGCAG”, the binding signal is 7400 fluorescence intensity (a.u.).

For “ATATCAAATTAGTTTCATTGAATATATTTTGATAATATGTCGGAGTCACCTAGTGCAG”, the binding signal was 7170 fluorescence intensity (a.u.).

As for “AAGGTACCAATTAGGAGTAGTTAAAATGTGGGCCAGGTATCGGAGTCACCTAGTGCAG”, the binding signal is 3870 fluorescence intensity (a.u.).

As for “ACATTAATTACGAGGACTATTAAGCAAAATCAGAGAAATGCGGAGTCACCTAGTGCAG”, the binding signal was 13500 fluorescence intensity (a.u.).

With “AGCTAATATTTCATAAATTATTCGTGAATCCACGGCTCCACGGAGTCACCTAGTGCAG”, the binding signal was 3410 fluorescence intensity (a.u.).

On to “GGATATTAATTCCTCGTAAAATTGTCTCCCTCGACTTGCCCGGAGTCACCTAGTGCAG”, for which the binding signal was 3580 fluorescence intensity (a.u.).

For the sequence “ACCAAATTAATGTAGCAGAACGCAGTACAACCAAATTAAACGGAGTCACCTAGTGCAG”, the binding signal was 4280 fluorescence intensity (a.u.).

Consider “AACCGTTTGATTGGACTCCAACTTCAGAAAAGGTGAAGCTCGGAGTCACCTAGTGCAG”, for which the binding signal is 22700 fluorescence intensity (a.u.).

Regarding “GTTAACTGAATATTATATCGAAGAAAACTTGCATTTCAGACGGAGTCACCTAGTGCAG”, the binding signal was 7980 fluorescence intensity (a.u.).

As for “TCTAACAAAACGTAATAATTTTCTTACAGGAATTCTAGTTCGGAGTCACCTAGTGCAG”, the binding signal is 4480 fluorescence intensity (a.u.).

With “ATAACAAGATGATAATTAATTAACTGGTTTCCGCATCAATCGGAGTCACCTAGTGCAG”, the binding signal is 34200 fluorescence intensity (a.u.).

As for “TTTTATATTTTAATTAATTACATAATGTAAATATTTCTCACGGAGTCACCTAGTGCAG”, the binding signal was 17100 fluorescence intensity (a.u.).

Turning to “AAAAGGATTAAATTGGCAGTTCATGAAAATGCTTATAGAACGGAGTCACCTAGTGCAG”, the binding signal is 9860 fluorescence intensity (a.u.).

Turning to “TTCCTTGCCAATCTGTCATTCTGATTTCAAGTTGAACATGCGGAGTCACCTAGTGCAG”, the binding signal is 14600 fluorescence intensity (a.u.).

Turning to “GCGAATGATTGGTTATATATCCTTCGGGTTCAAGCAAAGGCGGAGTCACCTAGTGCAG”, the binding signal is 37900 fluorescence intensity (a.u.).

In the case of “CTACCATGATATTATATAATTTCCTTGTCAATTCATATCCCGGAGTCACCTAGTGCAG”, the binding signal is 3850 fluorescence intensity (a.u.).

With “AGCACCACTCATTAATCATTTCCATCACAGGTAAATCGTGCGGAGTCACCTAGTGCAG”, the binding signal is 6430 fluorescence intensity (a.u.).
